Results as given in PubChem BioAssay AID488969 (Vanderbilt High Throughput Screening Facility, 2010).
Over roughly 110,000 compounds, “z-score” has its median near -0.1; the highest 2% begin near 2. The list shows a part of the results. The source made the active and inactive calls.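 Rule for the calls: active = z-score in the third read window above 3 or below -3; inactive = the rest.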

What follows are molecules tested against Metabotropic glutamate receptor 8 (Rattus norvegicus) (UniProt P70579) (assay: rat mGluR8 modulators via GIRK flux, primary screen, cell-based, thallium flux, HTS (AID 488969)). Settings: HEK293 rat mGluR8, GIRK (G protein-gated inwardly rectifying potassium channel) thallium flux, FluoZin2; at 10 µM; stronger effect = higher value; submaximal glutamate (EC20) added with thallium.
UniProt P70579, sequence (P70579 whole entry, looked up): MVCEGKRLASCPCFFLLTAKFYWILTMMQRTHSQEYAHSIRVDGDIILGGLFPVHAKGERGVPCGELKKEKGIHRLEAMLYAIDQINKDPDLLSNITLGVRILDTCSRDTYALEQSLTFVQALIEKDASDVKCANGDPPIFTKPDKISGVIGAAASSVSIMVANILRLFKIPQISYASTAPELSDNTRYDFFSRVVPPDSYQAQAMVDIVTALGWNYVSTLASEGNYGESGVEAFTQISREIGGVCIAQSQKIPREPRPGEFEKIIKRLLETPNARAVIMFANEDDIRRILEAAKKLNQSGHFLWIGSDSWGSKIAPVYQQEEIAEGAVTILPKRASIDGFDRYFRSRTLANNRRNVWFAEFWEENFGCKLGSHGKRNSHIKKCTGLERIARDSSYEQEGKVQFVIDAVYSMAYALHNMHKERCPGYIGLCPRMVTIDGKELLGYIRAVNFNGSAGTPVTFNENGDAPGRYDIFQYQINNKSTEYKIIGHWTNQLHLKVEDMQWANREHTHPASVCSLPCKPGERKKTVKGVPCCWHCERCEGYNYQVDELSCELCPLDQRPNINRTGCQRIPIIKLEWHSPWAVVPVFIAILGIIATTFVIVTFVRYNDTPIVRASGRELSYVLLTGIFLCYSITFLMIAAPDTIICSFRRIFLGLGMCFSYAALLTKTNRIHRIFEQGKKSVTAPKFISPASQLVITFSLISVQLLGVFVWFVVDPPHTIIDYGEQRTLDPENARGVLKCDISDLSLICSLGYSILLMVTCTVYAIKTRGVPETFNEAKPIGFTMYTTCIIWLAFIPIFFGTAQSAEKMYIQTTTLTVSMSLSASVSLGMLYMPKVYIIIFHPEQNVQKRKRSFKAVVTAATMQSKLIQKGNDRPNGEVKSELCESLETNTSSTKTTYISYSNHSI
In the case of `CCCN(CCC)S(=O)(=O)c1ccc(NC(=O)Cc2cccs2)cc1`, the z-score is reported as -0.666.
In the case of `Cn1c(N2CCN(c3ccccn3)CC2)nc2c1c(=O)n(Cc1ccccc1Cl)c(=O)n2C`, the z-score is reported as -0.275.
Molecule `CCc1ccccc1NC(=O)C1NC(=O)CC1c1ccccc1` (centres undefined) has a z-score of -0.123.
Work on `Cc1cc(C)c(S(C)(=O)=O)c(Oc2cccc(Cl)c2)n1` yielded a z-score of -0.169.
In the case of `O=c1c2ccccc2nc(-c2ccccc2)n1/N=C/c1ccc([N+](=O)[O-])cc1`, the z-score is reported as active: 6.71.
In the case of `COc1nnc(-c2ccc(N3CCCCC3)c(NC(C)=O)c2)c2ccccc12`, the z-score is reported as 0.0275.
For `CC1=CC(c2ccc(Cl)cc2)n2nc(NS(=O)(=O)c3ccc(C)cc3)nc2N1` (centres undefined), the z-score was -0.217.
Work on `Cc1cc(NC(=O)CSc2nnc(-c3cccnc3)n2C)no1` yielded a z-score of 0.0216.
`CCOc1ccc(Nc2ncnc3c2cnn3Cc2ccccc2)cc1` gave a z-score of 2.26.
With `CC(C)c1ccccc1NC(=O)C1CN(S(=O)(=O)c2ccccc2)CCN1S(=O)(=O)c1ccccc1` (centres undefined) the z-score was -0.331.
`O=C(CSc1nnc(Cc2cccs2)n1CCc1ccccc1)N1CCCc2ccccc21` was tested, and the z-score was 0.0317.
For `COc1ccc(C=C(C(C)=O)C(C)=O)cc1OC`, the z-score was -0.325.
In the case of `CN(/N=C/C=C/c1ccccc1)C1=NS(=O)(=O)c2ccccc21`, the z-score is reported as 0.00215.
For `CSCCC1NC(=O)N(CC(=O)Nc2c(Cl)cc(Cl)cc2Cl)C1=O` (centres undefined), the z-score was -0.128.
`Cc1ccc(CNc2nc(N)c([N+](=O)[O-])c(NCc3ccccc3)n2)cc1` showed a z-score of -0.0457.
Work on `Cc1cccc(Oc2ncnc3onc(C)c23)c1C` yielded a z-score of -0.0551.
`COc1ccc(Cn2c(=O)sc3ccccc32)cc1` was tested, and the z-score was -0.817.
For `CCC(C)n1c(=N)c(C#N)cc2c(=O)n3ccccc3nc21` (centres undefined), the z-score was -0.446.
`CC(=O)c1ccc(Nc2nc(NCCO)nc(OC(C(F)(F)F)C(F)(F)F)n2)cc1` showed a z-score of -0.215.
`COc1nc(NCC(C)C)nc(Oc2ccc(=O)n(-c3ccccc3)n2)n1` gave a z-score of -0.109.
`O=C(NCc1ccccc1)C1COc2ccccc2O1` (centres undefined) gave a z-score of -0.13.
`O=C(O)c1cc2n(n1)C(C(F)(F)F)CC(c1ccccc1)N2` (centres undefined) gave a z-score of -0.725.
For `COCCN(CC(=O)NCc1ccc2c(c1)OCO2)C(=O)CCC(=O)Nc1nccs1`, the z-score was -0.182.
With `Cc1ccc2nc(N3CCN(Cc4ccc(F)cc4)C3=O)c(C)cc2c1` the z-score was -0.912.
`Cc1ccc(C)c2[nH]c(=O)c(CCNC(=O)c3ccc4c(c3)OCO4)cc12` showed a z-score of 0.118.
For `COC(=O)c1c(NC(=O)CN2CCN(Cc3ccc4c(c3)OCO4)CC2)sc(C)c1C`, the z-score was -0.0305.
`O=C(c1ccc(NS(=O)(=O)c2cccs2)cc1)N1CCCCC1` showed a z-score of -0.889.
For `COc1ccc(-c2noc(CCC(=O)Nc3ccc4c(c3)OCCO4)n2)cc1`, the z-score was -0.26.
In the case of `O=C(c1cccc2c1C(=O)N(Cc1cccnc1)C2)N1CCN(c2ccccc2)CC1`, the z-score is reported as -0.233.
With `CCOc1cccc(N2C(=O)CC(NCc3ccc(S(N)(=O)=O)cc3)C2=O)c1` (centres undefined) the z-score was -0.472.
With `Cc1ccc(/C=C/C(=O)Nn2cnnc2)cc1` the z-score was 0.123.
Molecule `COc1ccccc1NC(=O)CSc1nnnn1C` has a z-score of 0.016.
`CCOc1ccc2nc(SC3CC(=O)N(c4ccc(OC)cc4)C3=O)sc2c1` (centres undefined) gave a z-score of 0.369.
Molecule `COc1cccc(C2CC(=O)NC(SC)=C2C#N)c1` (centres undefined) has a z-score of -0.235.
For `O=c1c2ccc(Cl)cc2[nH]c(=S)n1CCC1=CCCCC1`, the z-score was active: 5.05.
`COc1ccc(/C=C2\SC(=S)N(Cc3cccnc3)C2=O)cc1C` was tested, and the z-score was -0.0985.
Work on `Nc1nc2sc3c(c2c(=O)s1)CCCC3` yielded a z-score of -0.206.
`O=C(CSc1nnc(COc2ccccc2)n1Cc1ccco1)Nc1ccc2c(c1)OCCO2` gave a z-score of -0.475.
`Cc1cccc(N2C(=O)c3cccc4c(N5CCCCC5)c([N+](=O)[O-])cc(c34)C2=O)c1C` was tested, and the z-score was -0.494.
Molecule `O=C(CC1NCCNC1=O)OCc1ccccc1` (centres undefined) has a z-score of 0.419.
For `COc1ccc(-c2[nH]c(-c3ccccc3)nc2SCC(=O)NCc2ccco2)cc1OC`, the z-score was 0.0309.
In the case of `Cc1cc(N2CCCCC2)nc(N)n1`, the z-score is reported as 0.0516.
Work on `O=C(Nc1cccc(OCC(=O)N2CCOCC2)c1)C1CCCCC1` yielded a z-score of 0.00741.
`O=C(COC(=O)c1cccs1)Nc1nc(-c2ccccc2)cs1` gave a z-score of -0.296.
With `COc1ccc(C(=O)Nc2cc(C(F)(F)F)ccc2-n2cnc3ccccc32)cc1` the z-score was -0.219.
`O=C(Nc1ccc(F)cc1)N1CCC(c2nc3c(nnn3Cc3cccc(Cl)c3)c(=O)[nH]2)CC1` was tested, and the z-score was -0.111.
`COc1cccc(/C=N/NC(=O)c2cccc([N+](=O)[O-])c2)c1OS(=O)(=O)c1ccc(C)cc1` showed a z-score of 0.156.
`COc1ccccc1/C=C/C1=NC(=C\C=C/c2ccccc2)/C(=O)O1` was tested, and the z-score was 0.49.
With `Cc1ccn2c(/C=N/OCc3ccc(F)cc3)c(-c3ccc(Cl)cc3)nc2c1` the z-score was -0.0987.
`CCOC(=O)C1C(=O)CC(O)(c2ccccc2)CC1c1ccccc1` (centres undefined) was tested, and the z-score was -0.679.
For `Cc1cccc(-n2c(C)cc(/C=N/NC(=O)c3cccc([N+](=O)[O-])c3C)c2C)c1`, the z-score was -0.459.
In the case of `CCN(C#N)c1nc(NC(C)C)nc(NC(C)C)n1`, the z-score is reported as active: -3.06.
`CCN(CC)c1ccc(/C=N/NC(=O)CCC(=O)NCc2ccccc2)c(O)c1` showed a z-score of 0.00231.
`CN(c1ccccc1)c1ccc(/C=N/NC(=O)CC#N)cc1` gave a z-score of -0.203.
